By IC50 is meant the dose at which the fit gives 50% viability; a limit (>, <) means that the fit lies beyond the doses tested. AUC sums up the same curve from the lowest dose to the 256-fold higher top dose: 1 means no effect, lower means more sensitive. Any top dose called inferred is not printed in the source and was worked back from the curve model.
Columns and labels:
Assay in all cases: Viability of human cancer cell lines after 72 h of drug (GDSC screen)
NG-25 = compound: CCN1CCN(Cc2ccc(NC(=O)c3ccc(C)c(Oc4ccnc5[nH]ccc45)c3)cc2C(F)(F)F)CC1 [NG-25]; details: top dose 10.24 µM; top dose inferred
Procedure: (§1)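 Human cancer cell lines in 384-well plates, medium with 10% serum, drug for 72 h over a 256-fold dose range (nine 2-fold or five 4-fold steps up to the top dose). Adherent lines were fixed and stained with the nucleic acid dye Syto60, suspension lines read with resazurin; signal relative to control wells, capped at 0 and 100%. One two-parameter sigmoid per drug and line, fitted in a mixed model over all curves with the slope shared within a line.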

Tipifarnib = compound: Cn1cncc1[C@@](N)(c1ccc(Cl)cc1)c1ccc2c(c1)c(-c1cccc(Cl)c1)cc(=O)n2C [Tipifarnib]; details: top dose 16 µM; top dose inferred
Procedure: as §1

PFI-1 = compound: COc1ccccc1S(=O)(=O)Nc1ccc2c(c1)CN(C)C(=O)N2 [PFI-1]; details: top dose 10 µM; top dose inferred
Procedure: as §1

BMS-509744 = compound: COc1cc(C)c(Sc2cnc(NC(=O)c3ccc(CNC(C)C(C)(C)C)cc3)s2)cc1C(=O)N1CCN(C(C)=O)CC1 [BMS-509744]; details: top dose 10.24 µM; top dose inferred
Procedure: as §1

GSK-1904529A = compound: CCc1cc(Nc2nccc(-c3c(-c4ccc(OC)c(C(=O)Nc5c(F)cccc5F)c4)nc4ccccn34)n2)c(OC)cc1N1CCC(N2CCN(S(C)(=O)=O)CC2)CC1 [GSK-1904529A]; details: top dose 1.024 µM; top dose inferred
Procedure: as §1

Cell Line | AUC (NG-25) | IC50 (NG-25) [µM] | AUC (Tipifarnib) | IC50 (Tipifarnib) [µM] | AUC (PFI-1) | IC50 (PFI-1) [µM] | AUC (BMS-509744) | IC50 (BMS-509744) [µM] | AUC (GSK-1904529A) | IC50 (GSK-1904529A) [µM]
NCI-H1395 (lung adenocarcinoma, adherent) | 0.846 | > 10.2 | 0.894 | > 16 | 0.894 | > 10 | 0.959 | > 10.2 | 0.982 | > 1.02
CL-11 (large intestine, adherent) | 0.96 | > 10.2 | 0.977 | > 16 | 0.858 | 9.9 | 0.982 | > 10.2 | 0.987 | > 1.02
no-11 (glioma, adherent) | 0.884 | > 10.2 | 0.707 | 4.48 | 0.926 | > 10 | 0.861 | > 10.2 | 0.937 | > 1.02
NOMO-1 (acute myeloid leukaemia, suspension) | 0.894 | > 10.2 | 0.888 | > 16 | 0.703 | 2.55 | 0.98 | > 10.2 | 0.982 | > 1.02
Ramos-2G6-4C10 (Burkitt lymphoma, suspension) | 0.775 | 3.47 | 0.888 | 13.5 | 0.885 | 8.15 | 0.922 | > 10.2 | 0.988 | > 1.02
REH (B-cell leukaemia, suspension) | 0.769 | 3.72 | 0.237 | 0.179 | 0.921 | > 10 | 0.877 | 9.54 | 0.986 | > 1.02
SK-MM-2 (myeloma, suspension) | 0.819 | 6.16 | 0.781 | 6.92 | 0.835 | 6.98 | 0.885 | > 10.2 | 0.986 | > 1.02
8-MG-BA (glioma, adherent) | 0.879 | 9.4 | 0.582 | 1.66 | 0.761 | 3.34 | 0.926 | > 10.2 | 0.988 | > 1.02
ML-2 (acute myeloid leukaemia, suspension) | 0.953 | > 10.2 | 0.184 | 0.131 | 0.926 | > 10 | 0.788 | 3.96 | 0.988 | > 1.02
SNB75 (glioma, adherent) | 0.976 | > 10.2 | 0.741 | 6.9 | 0.849 | > 10 | 0.782 | 6.57 | 0.945 | > 1.02
EC-GI-10 (oesophagus, adherent) | 0.97 | > 10.2 | 0.989 | > 16 | 0.896 | > 10 | 0.989 | > 10.2 | 0.989 | > 1.02
HC-1 (hairy cell leukaemia, suspension) | 0.619 | 1.34 | 0.535 | 1.24 | 0.803 | 4.74 | 0.941 | > 10.2 | 0.983 | > 1.02
EW-1 (Ewing sarcoma, semi-adherent) | 0.773 | 3.65 | 0.786 | 6.32 | 0.988 | > 10 | 0.755 | 3.23 | 0.961 | > 1.02
BL-41 (Burkitt lymphoma, suspension) | 0.628 | 1.32 | 0.62 | 1.96 | 0.751 | 2.63 | 0.848 | 5.05 | 0.989 | > 1.02
LB373-MEL-D (melanoma, adherent) | 0.924 | > 10.2 | 0.729 | 4.42 | 0.885 | > 10 | 0.913 | > 10.2 | 0.987 | > 1.02
NCI-H1581 (large cell lung carcinoma, semi-adherent) | 0.859 | 7.45 | 0.91 | > 16 | 0.952 | > 10 | 0.961 | > 10.2 | 0.99 | > 1.02
OPM-2 (myeloma, suspension) | 0.745 | 2.73 | 0.941 | > 16 | 0.836 | 4.98 | 0.882 | 7.47 | 0.993 | > 1.02
MSTO-211H (mesothelioma, adherent) | 0.991 | > 10.2 | 0.98 | > 16 | 0.958 | > 10 | 0.981 | > 10.2 | 0.991 | > 1.02
NCI-H2081 (small cell lung carcinoma, suspension) | 0.948 | > 10.2 | 0.945 | > 16 | 0.982 | > 10 | 0.977 | > 10.2 | 0.989 | > 1.02
EM-2 (chronic myeloid leukaemia, suspension) | 0.07 | < 0.04 | 0.79 | 8.21 | 0.792 | 5.21 | 0.903 | > 10.2 | 0.977 | > 1.02
KS-1 (glioma, adherent) | 0.761 | 4.5 | 0.495 | 0.964 | 0.819 | 7.58 | 0.632 | 1.62 | 0.966 | > 1.02
NCI-H1355 (lung adenocarcinoma, adherent) | 0.976 | > 10.2 | 0.422 | 0.556 | 0.898 | > 10 | 0.782 | 6.48 | 0.964 | > 1.02
DEL (lymphoid neoplasm, suspension) | 0.883 | 7.05 | 0.521 | 1.13 | 0.953 | > 10 | 0.924 | > 10.2 | 0.994 | > 1.02
ST486 (Burkitt lymphoma, suspension) | 0.601 | 1.17 | 0.542 | 1.28 | 0.803 | 4.32 | 0.911 | > 10.2 | 0.987 | > 1.02
A253 (head and neck, adherent) | 0.972 | > 10.2 | 0.762 | 5.59 | 0.978 | > 10 | 0.951 | > 10.2 | 0.972 | > 1.02

Cell Line | AUC (NG-25) | IC50 (NG-25) [µM] | AUC (Tipifarnib) | IC50 (Tipifarnib) [µM] | AUC (PFI-1) | IC50 (PFI-1) [µM] | AUC (BMS-509744) | IC50 (BMS-509744) [µM] | AUC (GSK-1904529A) | IC50 (GSK-1904529A) [µM]
NCI-H524 (small cell lung carcinoma, suspension) | 0.991 | > 10.2 | 0.95 | > 16 | 0.93 | > 10 | 0.953 | > 10.2 | 0.991 | > 1.02
COLO-800 (melanoma, adherent) | 0.953 | > 10.2 | 0.909 | > 16 | 0.8 | 4.67 | 0.984 | > 10.2 | 0.987 | > 1.02
DND-41 (T-cell leukaemia, suspension) | 0.615 | 1.27 | 0.701 | 3.39 | 0.868 | 7.36 | 0.929 | > 10.2 | 0.978 | > 1.02
Becker (glioma, adherent) | 0.939 | > 10.2 | 0.755 | 6.06 | 0.85 | 9.05 | 0.958 | > 10.2 | 0.979 | > 1.02
NTERA-2 cl.D1 (testis, adherent) | 0.816 | 5.6 | 0.32 | 0.315 | 0.777 | 3.97 | 0.745 | 3.19 | 0.972 | > 1.02
UACC-257 (melanoma, adherent) | 0.768 | 4.77 | 0.842 | 15.4 | 0.88 | > 10 | 0.837 | 9.44 | 0.972 | > 1.02
HT-144 (melanoma, adherent) | 0.955 | > 10.2 | 0.492 | 0.951 | 0.873 | > 10 | 0.735 | 3.27 | 0.979 | > 1.02
NAMALWA (Burkitt lymphoma, suspension) | 0.584 | 1.04 | 0.802 | 6.46 | 0.81 | 4.26 | 0.894 | 8.88 | 0.991 | > 1.02
MOLT-4 (lymphoblastic leukaemia, suspension) | 0.869 | 6.62 | 0.651 | 2.4 | 0.855 | 5.74 | 0.924 | > 10.2 | 0.99 | > 1.02
NCI-H69 (small cell lung carcinoma, suspension) | 0.985 | > 10.2 | 0.932 | > 16 | 0.887 | > 10 | 0.955 | > 10.2 | 0.981 | > 1.02
LS-513 (large intestine, adherent) | 0.789 | 4.73 | 0.932 | > 16 | 0.966 | > 10 | 0.971 | > 10.2 | 0.983 | > 1.02
AM-38 (glioma, semi-adherent) | 0.731 | 2.96 | 0.848 | 12.3 | 0.987 | > 10 | 0.976 | > 10.2 | 0.988 | > 1.02
EW-16 (Ewing sarcoma, adherent) | 0.878 | > 10.2 | 0.588 | 1.76 | 0.892 | > 10 | 0.662 | 1.84 | 0.936 | > 1.02
OCI-M1 (acute myeloid leukaemia, suspension) | 0.841 | 4.8 | 0.855 | 8.26 | 0.853 | 5.11 | 0.985 | > 10.2 | 0.995 | > 1.02
BV-173 (chronic myeloid leukaemia, suspension) | 0.043 | < 0.04 | 0.676 | 2.89 | 0.771 | 3.39 | 0.891 | 9.5 | 0.989 | > 1.02
NCI-H1876 (small cell lung carcinoma, adherent) | 0.828 | 6.43 | 0.982 | > 16 | 0.938 | > 10 | 0.907 | > 10.2 | 0.985 | > 1.02
GI-ME-N (neuroblastoma, adherent) | 0.742 | 4.15 | 0.907 | > 16 | 0.732 | 3.73 | 0.737 | 3.99 | 0.97 | > 1.02
TE-12 (oesophagus, suspension) | 0.892 | > 10.2 | 0.64 | 2.67 | 0.938 | > 10 | 0.686 | 2.39 | 0.915 | > 1.02
EKVX (lung adenocarcinoma, adherent) | 0.961 | > 10.2 | 0.802 | > 16 | 0.897 | > 10 | 0.932 | > 10.2 | 0.955 | > 1.02
NB13 (neuroblastoma, adherent) | 0.786 | 3.9 | 0.705 | 3.49 | 0.92 | > 10 | 0.916 | > 10.2 | 0.982 | > 1.02
IMR-5 (neuroblastoma, adherent) | 0.8 | 4.06 | 0.848 | 9.15 | 0.822 | 4.66 | 0.913 | > 10.2 | 0.992 | > 1.02
HSC-39 (stomach, suspension) | 0.991 | > 10.2 | 0.991 | > 16 | 0.888 | 8.6 | 0.937 | > 10.2 | 0.991 | > 1.02
GR-ST (lymphoblastic leukaemia, suspension) | 0.801 | 6.26 | 0.644 | 2.72 | 0.696 | 2.51 | 0.904 | > 10.2 | 0.975 | > 1.02
EB2 (Burkitt lymphoma, suspension) | 0.409 | 0.369 | 0.654 | 2.56 | 0.989 | > 10 | 0.966 | > 10.2 | 0.99 | > 1.02

— the supplement of paper PMC4967469
